Reference: article PMC4336329 (PLoS ONE, 2015)
About 14,000 (4.5%) of roughly 310,000 compounds showed an effect of 50% or more. Effects have a minus sign here. Some of the results follow.

biological target: human ether-à-go-go-related gene (hERG) potassium channel (human, UniProt Q12809); assay: primary screen, population patch clamp on CHO cells stably expressing hERG
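Further: peak tail current of the secondary pulse compared with the same well before compound.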

human ether-à-go-go-related gene (hERG) potassium channel, sequence (Q12809 whole entry, looked up): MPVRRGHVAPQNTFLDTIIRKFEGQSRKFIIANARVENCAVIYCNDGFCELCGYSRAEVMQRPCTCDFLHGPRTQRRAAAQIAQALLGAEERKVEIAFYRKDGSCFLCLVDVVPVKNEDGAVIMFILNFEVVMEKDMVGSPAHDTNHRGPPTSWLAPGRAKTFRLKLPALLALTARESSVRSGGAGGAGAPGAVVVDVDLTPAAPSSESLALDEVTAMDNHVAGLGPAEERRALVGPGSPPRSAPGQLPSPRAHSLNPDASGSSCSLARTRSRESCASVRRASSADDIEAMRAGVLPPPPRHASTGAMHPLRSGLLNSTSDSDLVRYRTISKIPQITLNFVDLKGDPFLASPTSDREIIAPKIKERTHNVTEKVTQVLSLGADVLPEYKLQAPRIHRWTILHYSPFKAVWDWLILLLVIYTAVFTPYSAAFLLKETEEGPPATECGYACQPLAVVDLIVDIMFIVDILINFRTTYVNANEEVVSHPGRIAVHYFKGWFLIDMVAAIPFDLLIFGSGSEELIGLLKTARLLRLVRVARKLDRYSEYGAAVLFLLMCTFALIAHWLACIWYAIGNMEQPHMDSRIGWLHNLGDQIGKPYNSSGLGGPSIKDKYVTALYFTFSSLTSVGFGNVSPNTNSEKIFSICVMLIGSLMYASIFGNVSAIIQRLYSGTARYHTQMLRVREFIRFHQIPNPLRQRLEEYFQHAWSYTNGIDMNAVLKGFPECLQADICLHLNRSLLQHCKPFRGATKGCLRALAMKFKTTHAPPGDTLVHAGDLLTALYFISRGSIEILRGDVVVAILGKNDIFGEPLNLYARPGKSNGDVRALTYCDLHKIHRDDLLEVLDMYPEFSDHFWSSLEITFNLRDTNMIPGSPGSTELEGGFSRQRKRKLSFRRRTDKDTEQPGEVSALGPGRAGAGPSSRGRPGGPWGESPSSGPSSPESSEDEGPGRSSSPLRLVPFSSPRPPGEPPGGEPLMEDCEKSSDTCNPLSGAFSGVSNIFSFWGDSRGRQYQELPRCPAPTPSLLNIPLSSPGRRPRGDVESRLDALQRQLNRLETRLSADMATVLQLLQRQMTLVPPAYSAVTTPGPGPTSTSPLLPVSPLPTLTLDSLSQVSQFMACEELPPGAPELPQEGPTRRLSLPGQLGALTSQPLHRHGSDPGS

Row | SMILES | hERG current change (%, negative = inhibition) at 10uM [%]
1 | O=C(N/N=C/c1ccc([N+](=O)[O-])cc1)c1cccc2cc[nH]c12 | 12.4
2 | CNC(=S)N1CCC(n2cnc3ccccc32)CC1 | -7.43
3 | CC(C)(C)c1ccc(-c2cc(N)n[nH]2)cc1 | -6.11
4 | COC(=O)C1(C)CCC(C(=O)Nc2ccccc2)C1(C)C (stereo not shown) | 1.38
5 | CCCCCC(=O)NC(CC(=O)OC)c1ccc2c(c1)OCO2 (stereo not shown) | 10.7
6 | CCC(=C(c1ccc(OC)cc1)c1ccc(OC)cc1)c1cn(CC(O)CN(CCO)CCO)c2ccccc12.O=C(O)/C=C\C(=O)O (stereo not shown) | 5.08
7 | Cc1ccc2c(c1)nnn2C1CCN(CC(=O)NNC(=O)c2ccco2)CC1 | 37.1
8 | COC(=O)CC/C(O)=C1\C(=O)CC(C)(C)CC1=Nc1ccccc1OC | 3.73
9 | Cn1ccnc1C1CCCCN1Cc1nc(-c2ccc3c(c2)OCO3)no1 (stereo not shown) | -7.65
10 | CCCOc1ccc(C(O)C(CN2CCOCC2)c2ccccc2)cc1.Cl (stereo not shown) | 1.07
11 | COc1cccc(NC(=O)CN(C)C(=O)CSc2ncnc3sc(C)c(C)c23)c1 | -15.5
12 | O=C(CSc1nnc2n1CCCCC2)Nc1ccc(N2CCOCC2)cc1 | -3.81
13 | COc1cccc(NC(=O)Nc2cc(C)ccc2OC)c1 | -3.39
14 | Cc1ccc(C(=O)OC2CCOC2=O)cc1NC(=O)c1ccco1 (stereo not shown) | 0.0901
15 | COc1cccc(N/C=C/C(=O)c2ccc(Br)cc2)c1 | 11.5
16 | CCc1cccc2c(C(=O)CSc3nnc(C4CC4)o3)c[nH]c12 | -6.51
17 | COc1ccc(CCNC(=S)N(C)C)cc1OC | 32.8
18 | CCOC(=O)N(c1ccccc1)P1(=S)OCCO1 | 0.953
19 | Cc1ccc(C(=O)OC/C(O)=C(\C#N)c2nc3ccccc3[nH]2)cc1S(=O)(=O)N1CCOCC1 | -8.52
20 | Cc1nn(C)c(C)c1NC(=O)c1ccc(Cl)cc1 | 19
21 | O=C(NC1CC(=O)N(c2ccc3c(c2)OCCO3)C1)N1CCC(O)CC1 (stereo not shown) | 9.14
22 | CC1CCCCN1CCNC(=O)C1CCN(S(=O)(=O)c2cccc3cccnc23)CC1 (stereo not shown) | -6.04
23 | C=CCn1c(SCc2c(C(=O)OC)sc(N)c2C(=O)OC)nnc1-c1ccc(Br)cc1 | -65.4

Row | SMILES | hERG current change (%, negative = inhibition) at 10uM [%]
24 | CCOC(=O)N1CCC(NC(=O)C2CCN(C(=O)c3cc4sccc4n3CC)CC2)CC1 | -5.09
25 | CCC(C)NC(=O)c1cn(CC)c2cc(N3CCN(C)CC3)c(F)cc2c1=O (stereo not shown) | 2.37
26 | CC1CCN(C(=S)NC(=O)c2ccco2)CC1 | 12.3
27 | CC1CCCCC12NC(=O)N(CC(=O)N1CCN(Cc3ccc(C#N)cc3)CC1)C2=O (stereo not shown) | -15.1
28 | COc1ccc(N2CC(C(=O)OCC(=O)c3ccc(C)cc3)CC2=O)cc1 (stereo not shown) | 13.9
29 | Oc1ccc(Br)cc1-c1cc(-c2ccccc2F)[nH]n1 | -1.3
30 | COCCOC(=O)C1=C(N)Oc2c(c(=O)oc3ccccc23)C1c1ccncc1 (stereo not shown) | -22.9
31 | O=C(C1CC1)N1CCc2cc(S(=O)(=O)NC3CCN(Cc4ccccc4)CC3)ccc21 | 4.07
32 | COc1ccc(CCNC(=O)CNS(=O)(=O)c2ccc(N(C)C)c([N+](=O)[O-])c2)cc1OC | 7.98
33 | O=c1c2[nH]c3cccc(Cl)c3c2ncn1CCN1CCCCC1 | -21.9
34 | CN(C)c1ccc(C=NCC2COc3ccccc3O2)cc1 (stereo not shown) | 24.8
35 | COc1ccc(Br)cc1/C=N/Nc1ccccn1 | 14.8
36 | CCn1cc(C(=O)O)c(=O)c2cc(F)c(N3CCN(C(=S)NC(=O)c4ccccc4C)CC3)cc21 | -6.92
37 | Cc1ccc(NC(=O)C2CCN(S(=O)(=O)c3ccc4c(c3)NC(=O)C(C)S4)CC2)cc1Cl (stereo not shown) | 9.89
38 | CCOC(=O)C1=C(C)NC(=O)NC1c1cccc(OC)c1OCc1ccccc1Cl (stereo not shown) | -1.42
39 | CC(C)=CCCC(C)CN1CCC(N2CCC(C(=O)N3CCOCC3)CC2)CC1 (stereo not shown) | -60.4
40 | COc1cc(C2CC(=O)C=C(O)C2)cc(OC)c1OC (stereo not shown) | 27.1
41 | CCn1c(=O)c(C(=O)NCCN2CCCCC2)c(O)c2ccccc21.Cl | -25.3
42 | Cc1cc(C(=O)NCC(=O)OCC(=O)N2CCCCCC2)ccc1[N+](=O)[O-] | 10.1
43 | Cc1ccccc1C(=O)NC1CCN(Cc2nnnn2C(C)(C)C)CC1 | 17.7
44 | CC(=O)c1ccc(NC(=O)Nc2ccc(Cl)cc2)cc1 | 13.2
45 | Nc1ncc(S(=O)(=O)c2ccc(Cl)cc2)c(N)n1 | -4.78
46 | COc1cc(N=Cc2c(O)[nH]c3ccccc23)cc(OC)c1OC | 2.02
